Measurements as given in paper PMC12040169 (PLOS Biology, 2025).
The other results are listed elsewhere or left out.

system: T1, C. trachomatis L2/434/Bu expressing GFP (CTL2-GFP); parameters: species or system HeLa; C. trachomatis total inclusion area by high-content imaging, normalised to DMSO; conditions: total inclusion area; 28.5 h, 10 µM; inhibitor
T1 construct: L2/434/Bu GFP intracellular growth in HeLa cells
In short: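 After bulk GFP and resorufin fluorescence reads, cells were fixed, stained with Hoechst and imaged by high-content microscopy. Inclusion area and number (GFP) stood in for chlamydial growth, nuclei count (Hoechst) for host cell viability. MICs were derived as for the bulk readout.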

Structure (SMILES) | % of control remaining
CCNC(=O)NC[C@H]1C[C@@H]2CCN1C[C@@H]2c1cc(C2CCCC2)nc(C)n1 [CBK289122] | 102.529
CC[C@H]1CN(C(C)=O)CC[C@H]1CC(=O)NCc1ccc2c(c1)OCO2 [CBK289131] | 117.851
CCc1noc(C)c1C(=O)Nc1ncc(C)s1 [CBK288244] | 104.249
COC(=O)c1ncn(CC(=O)N2CCCCCC2)n1 [CBK305184] | 69.5292
CC(=O)c1cccc(NC(=O)CCCn2cc([N+](=O)[O-])cn2)c1 [CBK268911] | 97.8785
Cc1cc(Cl)c(S(=O)(=O)Nc2ccon2)cc1OCC(=O)NC1CCCCC1 [CBK266785] | 86.1971
CCOC(=O)NC(=O)Nc1cc2ccccc2c(Br)n1 [CBK063282] | 0.08094
COc1cc(CNC(=O)C(C)SCc2ccccc2)ccn1 (stereo not shown) [CBK298331] | 133.797
OCC1CCCN1c1nccnc1-c1cccc(O)c1 (stereo not shown) [CBK089052] | 85.1526
CSCCCNC(=O)c1cncc(-c2ccc(C(=O)N3CCOCC3)cc2)c1 [CBK158610] | 9.274
Oc1ccccc1Sc1cnccn1 [CBK085840] | 96.0048
Cc1ccc(S(N)(=O)=O)cc1NC(=O)c1ccco1 [CBK004204] | 83.5795
COc1cccc2sc(NC(=O)Cc3ccccc3)nc12 [CBK149284] | 88.6799
Cn1c(-c2nonc2N)nc2ccccc21 [CBK062642] | 70.7396
c1ccc(Oc2ccc(Nc3cc(-c4ccc(N5CCOCC5)cc4)ncn3)cc2)cc1 [CBK090923] | 81.5047
N=C1OC2CSCC2N1C(=O)Cc1c(F)cccc1Cl (stereo not shown) [CBK284517] | 70.3446
O=S(=O)(Nc1nccnc1-c1ccc2c(c1)OCO2)c1ccc(Cl)cc1 [CBK050952] | 82.5982
Cc1ccc(C(C)C)c(OCC(=O)Nc2cc(-c3nc4ccccc4[nH]3)ccc2C)c1 [CBK268724] | 86.6574
CC(C)(C)C(=O)Nc1nnc(SCC(=O)N2CCc3ccccc32)s1 [CBK004889] | 100.728
Cc1cc2c(o1)c1cnn(CC(=O)N3CCCC3)c(=O)c1n2C(C)C [CBK284232] | 87.8886
O=c1cnnc(Nc2cccc(Cl)c2Cl)[nH]1 [CBK287897] | 81.9979

Structure (SMILES) | % of control remaining
COc1cnc(-c2cnn(C)c2)c(NC(=O)Cc2ccccc2)n1 [CBK145327] | 77.5714
NC(=O)c1c(NC(=S)NC(NC(=O)c2ccccc2)C(Cl)(Cl)Cl)sc2c1CCCC2 (stereo not shown) [CBK261048] | 75.471
CCOc1ccc(-c2nn(-c3ccccc3)cc2/C=C2\SC(=S)N(CC(=O)O)C2=O)cc1F [CBK265647] | 115.125
O=C(c1cnn2cccnc12)N1CCc2[nH]c3ccccc3c2C1 [CBK281874] | 72.9568
CCOC(=O)N1CCC(NS(=O)(=O)c2c(C)noc2C)CC1 [CBK045465] | 88.156
CC(C)n1c(COc2ccc(OC(F)(F)F)cc2)n[nH]c1=S [CBK012989] | 74.3835
O=C(O)c1ccc(S(=O)(=O)NCc2ccc3c(c2)OCO3)cc1 [CBK262360] | 105.985
Cc1cc(C(=O)NCCc2ccc(S(N)(=O)=O)cc2)no1 [CBK268130] | 97.6258
Cc1cccnc1Nc1nc(-c2sc(N)nc2C)cs1 [CBK267147] | 124.774
O=C(Cn1cccc(C(=O)NCc2ccccc2)c1=O)Nc1cc(F)ccc1N1CCCC1 [CBK286041] | 109.395
C#CCNS(=O)(=O)c1cccc(C(=O)NCC2CCCN(C(C)C)C2)c1 (stereo not shown) [CBK305981] | 53.6614
CC(C)CC1CC(=O)Nc2c1c(=O)[nH]n2C(C)C (stereo not shown) [CBK287924] | 66.9361
Cn1ncnc1CNc1ccc(S(=O)(=O)N2CCCCCC2)cc1 [CBK305278] | 62.4131
COc1cc(C(=O)c2ccc(Cl)cc2)cc(Br)c1OCCN1CCOCC1 [CBK010131C] | 1.866
COc1cc(C)nc(NC(=O)COc2ccc(Cl)cc2C)n1 [CBK266681] | 112.444
N#Cc1ccc(C(=O)Nc2ccc(N3CCNCC3)nc2)cc1 [CBK029435T] | 95.3915
O=S(=O)(NCCN1CCOCC1)c1cc(Cl)ccc1Cl [CBK261757] | 90.8145
O=S(=O)(NCCSCc1c(Cl)cccc1Cl)c1ccc(Cl)cc1 [CBK265304] | 96.6749
CC(C)(C)c1ccc(OCc2nnc(S)n2N)cc1 [CBK268421] | 96.5387
COc1ccc(C=CC(=O)ONC(=O)c2ccc(OC(F)F)cc2)cc1OC [CBK296098] | 104.202
C=C(C)Cn1c(SCC(C)C)nnc1-c1ccccc1F [CBK200077] | 95.603

Structure (SMILES) | % of control remaining
Cc1cc(C)n(C(=O)CCC(=O)Nc2cccc(Cl)c2C)n1 [CBK263851] | 77.3816
CC(C)c1nsc(NS(=O)(=O)c2cc(C(F)(F)F)cc(C(F)(F)F)c2)n1 [CBK051263] | 122.374
Cc1cccn2cc(CCNC(=O)N[C@H](C)C(=O)N(C)C)nc12 [CBK304617] | 72.1115
CCOc1ncccc1CNc1ncnc2c1cnn2CCO [CBK305964] | 79.6667
COCCC(=O)N1C2CCC(C2)[C@@H]1COc1ccc(F)cc1 (stereo partly shown) [CBK284604] | 98.3707
CC(=O)NC(C)(COc1nonc1C)COc1nonc1C [CBK265955] | 82.386
O=C(CN1CCN(Cc2ccccc2)CC1)Nc1ccccc1Oc1ccccc1 [CBK074782] | 90.2117
O=C1NCC2(CCN(C(=O)c3cccs3)CC2)Oc2ccccc21 [CBK282917] | 109.977
COc1ccc(-c2cnc(N)c(NCCCN3CCOCC3)n2)c(OC)c1OC [CBK063676] | 99.0166
CCCc1[nH]nc(O)c1CCc1ccccc1F [CBK075080] | 92.0169
COc1ncc(-c2cncc(Nc3ccccc3)n2)c(OC)n1 [CBK065282] | 111.624
NC(=O)c1ccc(C(=O)NCC2CN3CCCN2CC3)cc1 (stereo not shown) [CBK304143] | 38.6574
O=C(CCn1c(=O)oc2ccccc21)Nc1ccc(S(=O)(=O)N2CCCCC2)cc1 [CBK268365] | 119.029
CN(C)CCN(Cc1cccnc1)C(=O)Cc1ccc2c(c1)CCC2 [CBK282770] | 90.3833
COc1cc(OC)c2c(c1)OC1(CCN(C(=O)C3CCCO3)CC1)CC2=O (stereo not shown) [CBK156476] | 79.8862
COc1ccccc1CN(CC1CCNCC1)C(=O)Nc1c(C)noc1C [CBK049739] | 75.5714
Cc1cc(OCC(=O)NCc2cccnc2)cc(C)c1Cl [CBK263658] | 104.328
O=C(NC1CC2(CCCC2)Oc2ccccc21)C1CCCO1 (stereo not shown) [CBK282420] | 81.1464
O=C(C1CCCC1)N1CCC(c2nnc(-c3ccsc3)o2)CC1 [CBK283379] | 103.102
O=C(O)c1cc(NC(=O)c2ccc(Oc3ccc([N+](=O)[O-])cc3)cc2)cc(C(=O)O)c1 [CBK261188] | 97.1047
O=C(Nc1ncnc2c1[nH]c(=O)n2C1CC(O)C(CO)O1)c1ccccc1 (stereo not shown) [CBK201250] | 104.385

Structure (SMILES) | % of control remaining
Cc1cc(CN(C)Cc2ccc(N3CCCC3)c(F)c2)n[nH]1 [CBK281953] | 81.3225
Cc1cc(N2CCN(c3ccccc3)CC2)nc(-c2ccccc2O)n1 [CBK116405] | 86.8684
Clc1ccc(COc2ccccc2OCc2ccccc2)s1 [CBK002766] | 80.0767
Cc1nc2n(n1)CCN(C(=O)Cc1c(C)[nH]c3ccc(F)cc13)C2 [CBK284355] | 74.4248
CN1CCN(C(=O)c2ccsc2NS(=O)(=O)c2ccc(-c3ccccc3)cc2)CC1 [CBK042274] | 85.5951
O=C(Cn1nnc(-c2ccc3c(c2)OCO3)n1)Nc1ccccc1C(=O)O [CBK268025] | 91.3916
COc1cc(CNC(=O)N2CCC(C(=O)O)CC2)cc(OC)c1OC [CBK161401] | 64.5139
Cc1ccc(S(=O)(=O)Nc2nc(C)c(C(=O)N3CCN(C)CC3)s2)cc1 [CBK045812] | 79.4487
O=c1[nH]c(=O)c2cc(S(=O)(=O)N3CCN(c4ccccn4)CC3)ccc2[nH]1 [CBK286379] | 93.039
CCc1ccccc1NC(=S)Nc1cccc(C)n1 [CBK288415] | 68.1686
CCOc1ccc(Nc2nc(-c3ccc(F)cc3)c(CC(=O)O)s2)cc1 [CBK296064] | 111.135
NC(=O)CN1C(=O)[C@@H]2CCCN2C(=O)c2ccccc21 [CBK283090] | 76.7932
COCCNCc1ccc(OCc2ccccc2)cc1 [CBK270133C] | 84.9977
O=S(=O)(c1ccccc1Br)N1CCOCC1 [CBK062404] | 75.0662
CCCn1c(SCC(=O)Nc2scc(-c3cccs3)c2C(=O)OCC)n[nH]c1=O [CBK296967] | 74.8231
N#Cc1ccc(CNC2(Cc3cc(-c4ccc(F)cc4)on3)COC2)cc1 [CBK289653] | 117.35
Cc1oc(NC(=O)CN2CCN(c3ccc(F)cc3)CC2)c(C#N)c1C [CBK305907] | 82.1945
O=C(NC1CC1)[C@H]1CN2CCC1C[C@@H]2Cn1cc(CC2CCCCC2)nn1 (stereo partly shown) [CBK288739] | 94.5109
O=C1C2(c3ccccc3)CN3CN(C2)CC1(c1ccccc1)C3 [CBK262245] | 78.0488
